Results published in the supplement of paper PMC4967469.
By IC50 is meant the dose at which the fit gives 50% viability; a fit beyond the top or the lowest dose is shown as a bound at that dose. For AUC the same curve is integrated over the 256-fold range of doses and scaled to a fraction; values near 1 show little effect. For some assays here: Any top dose called inferred was derived from the fitted curves, not read from the paper. For some assays here: An entry number marks a drug with two screens in the source, which often give different values.

Columns and labels:
Assay in all cases: Viability of human cancer cell lines after 72 h of drug (GDSC screen)
OSI-930 = compound: O=C(Nc1ccc(OC(F)(F)F)cc1)c1sccc1NCc1ccnc2ccccc12 [OSI-930]; conditions: top dose 10.24 µM
Method: (§1)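 Human cancer cell lines in 384-well plates, medium with 10% serum, drug for 72 h over a 256-fold dose range (nine 2-fold or five 4-fold steps up to the top dose). Adherent lines were fixed and stained with the nucleic acid dye Syto60, suspension lines read with resazurin; signal relative to control wells, capped at 0 and 100%. One two-parameter sigmoid per drug and line, fitted in a mixed model over all curves with the slope shared within a line.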

VNLG/124 = compound: CCCC(=O)OCc1ccc(OC(=O)/C=C(C)/C=C/C=C(C)/C=C/C2=C(C)CCCC2(C)C)cc1 [VNLG/124]; conditions: top dose 5.12 µM; top dose inferred
Method: as §1

BX-912 = compound: O=C(Nc1cccc(Nc2ncc(Br)c(NCCc3cnc[nH]3)n2)c1)N1CCCC1 [BX-912]; conditions: top dose 10.24 µM; top dose inferred
Method: as §1

LAQ824 = compound: O=C(/C=C/c1ccc(CN(CCO)CCc2c[nH]c3ccccc23)cc1)NO [LAQ824]; conditions: top dose 1.024 µM; top dose inferred
Method: as §1

Bleomycin = compound: Cc1c(N)nc([C@H](CC(N)=O)NC[C@H](N)C(N)=O)nc1C(=O)N[C@H](C(=O)N[C@H](C)[C@@H](O)[C@H](C)C(=O)N[C@H](C(=O)NCCc1nc(-c2nc(C(=O)NCCC[S+](C)C)cs2)cs1)[C@@H](C)O)[C@@H](OC1OC(CO)C(O)C(O)C1OC1OC(CO)C(O)C(OC(N)=O)C1O)c1cnc[nH]1 [Bleomycin]
Method: as §1

NSC-87877 = compound: O=S(=O)(O)c1ccc2cc(N=Nc3cc(S(=O)(=O)O)c4cccnc4c3O)ccc2c1 [NSC-87877]; conditions: top dose 16 µM; top dose inferred
Method: as §1

Elesclomol = compound: CN(NC(=O)CC(=O)NN(C)C(=S)c1ccccc1)C(=S)c1ccccc1 [Elesclomol]; conditions: top dose 0.2 µM; top dose inferred
Method: as §1

Masitinib = compound: Cc1ccc(NC(=O)c2ccc(CN3CCN(C)CC3)cc2)cc1Nc1nc(-c2cccnc2)cs1 [Masitinib]; conditions: top dose 20 µM
Method: as §1

Tamoxifen = compound: CC/C(=C(\c1ccccc1)c1ccc(OCCN(C)C)cc1)c1ccccc1 [Tamoxifen]; conditions: top dose 5 µM
Method: as §1

[1] = top dose 50 µM, screen: GDSC drug entry 1378, top dose inferred
[2] = top dose 64 µM, screen: GDSC drug entry 190

| Cell Line | AUC (OSI-930) | IC50 (OSI-930) [µM] | AUC (VNLG/124) | IC50 (VNLG/124) [µM] | AUC (BX-912) | IC50 (BX-912) [µM] | AUC (LAQ824) | IC50 (LAQ824) [µM] | AUC (Bleomycin; [1]) | IC50 (Bleomycin; [1]) [µM] | AUC (Bleomycin; [2]) | IC50 (Bleomycin; [2]) [µM] | AUC (NSC-87877) | IC50 (NSC-87877) [µM] | AUC (Elesclomol) | IC50 (Elesclomol) [µM] | AUC (Masitinib) | IC50 (Masitinib) [µM] | AUC (Tamoxifen) | IC50 (Tamoxifen) [µM] |
| --- | --- | --- | --- | --- | --- | --- | --- | --- | --- | --- | --- | --- | --- | --- | --- | --- | --- | --- | --- | --- |
| OVMIU (ovary, adherent) | 0.918 | > 10.2 | 0.974 | > 5.12 | 0.911 | > 10.2 | 0.449 | 0.045 | 0.58 | 5.45 | 0.269 | 0.733 | 0.853 | > 16 | 0.8 | 0.126 | 0.916 | > 20 | 0.978 | > 5 |
| P12-ICHIKAWA (T-cell lymphoblastic leukaemia, suspension) | 0.964 | > 10.2 | 0.958 | > 5.12 | 0.204 | 0.114 | 0.294 | 0.0197 | 0.951 | > 50 | 0.467 | 3.32 | 0.991 | > 16 | 0.933 | > 0.2 | 0.878 | 12.7 | 0.994 | > 5 |
| P30-OHK (lymphoblastic leukaemia, suspension) | 0.918 | > 10.2 | 0.991 | > 5.12 | 0.55 | 0.855 | 0.257 | 0.0149 | 0.332 | 1.17 | 0.597 | 7.03 | 0.991 | > 16 | 0.977 | > 0.2 | 0.831 | 9.85 | 0.99 | > 5 |
| P31-FUJ (acute myeloid leukaemia, suspension) | 0.95 | > 10.2 | 0.996 | > 5.12 | 0.978 | > 10.2 | 0.63 | 0.133 | 0.974 | > 50 | 0.984 | > 64 | 0.989 | > 16 | 0.994 | > 0.2 | 0.926 | 18.9 | 0.996 | > 5 |
| P32-ISH (Burkitt lymphoma, suspension) | 0.938 | > 10.2 | 0.995 | > 5.12 | 0.544 | 0.82 | 0.245 | 0.0149 | 0.888 | 32.2 | 0.281 | 1.16 | 0.985 | > 16 | 0.619 | 0.0244 | 0.791 | 6.66 | 0.994 | > 5 |
| PA-TU-8902 (pancreas, adherent) | 0.954 | > 10.2 | 0.966 | > 5.12 | 0.855 | > 10.2 | 0.49 | 0.0598 | 0.763 | 20.9 | 0.562 | 6.1 | 0.983 | > 16 | 0.614 | 0.0272 | 0.903 | > 20 | 0.981 | > 5 |
| PA-TU-8988T (pancreas, adherent) | 0.943 | > 10.2 | 0.984 | > 5.12 | 0.929 | > 10.2 | 0.569 | 0.0992 | 0.155 | 0.27 | 0.18 | 0.435 | 0.955 | > 16 | 0.276 | 0.00289 | 0.968 | > 20 | 0.985 | > 5 |
| PANC-03-27 (pancreas, adherent) | 0.944 | > 10.2 | 0.988 | > 5.12 | 0.946 | > 10.2 | 0.595 | 0.114 | 0.222 | 0.515 | 0.206 | 0.586 | 0.987 | > 16 | 0.672 | 0.0363 | 0.884 | 19.2 | 0.987 | > 5 |
| PANC-04-03 (pancreas, adherent) | 0.978 | > 10.2 | 0.976 | > 5.12 | 0.978 | > 10.2 | 0.608 | 0.152 | 0.858 | > 50 | 0.466 | 3.05 | 0.912 | > 16 | 0.837 | > 0.2 | 0.978 | > 20 | 0.974 | > 5 |
| PANC-08-13 (pancreas, adherent) | 0.968 | > 10.2 | 0.981 | > 5.12 | 0.956 | > 10.2 | 0.594 | 0.125 | 0.72 | 15.9 | 0.651 | 11.8 | 0.983 | > 16 | 0.502 | 0.0127 | 0.901 | > 20 | 0.972 | > 5 |
| PC-3 [JPC-3] (lung adenocarcinoma, adherent) | 0.965 | > 10.2 | 0.947 | > 5.12 | 0.892 | > 10.2 | 0.458 | 0.0473 | 0.798 | 33.1 | 0.578 | 6.99 | 0.981 | > 16 | 0.838 | > 0.2 | 0.898 | > 20 | 0.978 | > 5 |
| PCI-15A (head and neck, adherent) | 0.985 | > 10.2 | 0.987 | > 5.12 | 0.924 | > 10.2 | 0.444 | 0.045 | 0.149 | 0.252 | 0.341 | 1.44 | 0.829 | 10.1 | 0.987 | > 0.2 | 0.898 | > 20 | 0.986 | > 5 |
| PE/CA-PJ15 (head and neck, adherent) | 0.982 | > 10.2 | 0.98 | > 5.12 | 0.957 | > 10.2 | 0.527 | 0.0761 | 0.247 | 0.544 | 0.86 | 60.6 | 0.986 | > 16 | 0.746 | 0.0677 | 0.977 | > 20 | 0.979 | > 5 |
